Assay results as given in patent US20050250127A1, “Methods for identifying modulators of MDA-7 mediated apoptosis” (priority 2002, published 2005).

How the values were obtained:
Format in all cases: cell-based, human
PC-3 cells = experiment: Apoptotic (A0) fraction, Table 1, PC-3
Protocol: (§1) Annexin-V binding assay. Cells were trypsinized and washed once with complete media. Aliquots of cells (5×10^5) were resuspended in complete media (0.5 ml) and stained with FITC-labeled Annexin-V (Oncogene Research Products, Boston, Mass.) according to the manufacturer's instructions. Propidium Iodide (PI) was added to the samples after staining with Annexin-V to exclude late apoptotic and necrotic cells. FACS assay was performed immediately after staining. The percentage of the cells in the apoptotic (Ao) fraction was calculated using CellQuest software (Becton Dickinson).
(§2) Cell lines functionally deficient for JAK/STAT signaling were analyzed for susceptibility to killing. A human fibrosarcoma cell line 2f TGH (parental) and corresponding mutant cell lines derived from it were utilized, including U1A (lacking Tyk2), U3A (IFN-unresponsive, lacking STAT 1), U4A (lacking JAK 1) and USA (lacking IFNAR2c)(kind gift of G. Stark, Cleveland Clinic, Ohio). […] First, the profile of IL20/IL22 receptor gene expression in the 2f TGH series of cell lines was determined as described above for other cancer types.

2fTGH cells = experiment: Apoptotic (A0) fraction, Table 1, 2fTGH
Protocol: as §1, §2

U1A cells (lacking Tyk2) = experiment: Apoptotic (A0) fraction, Table 1, U1A
Protocol: as §1, §2

[1] = test system: U3A cells (lacking STAT 1); experiment: Apoptotic (A0) fraction, Table 1, U3A
Protocol: as §1, §2

[2] = test system: U4A cells (lacking JAK 1); experiment: Apoptotic (A0) fraction, Table 1, U4A
Protocol: as §1, §2

SMILES | proportion of cells with sub G0/G1 (A0) DNA content (PC-3 cells; inhibitor + Ad.mda-7) | proportion of cells with sub G0/G1 (A0) DNA content (PC-3 cells; inhibitor + Ad.vec) | proportion of cells with sub G0/G1 (A0) DNA content (2fTGH cells; inhibitor + Ad.mda-7) | proportion of cells with sub G0/G1 (A0) DNA content (2fTGH cells; inhibitor + Ad.vec) | proportion of cells with sub G0/G1 (A0) DNA content (U1A cells (lacking Tyk2); inhibitor + Ad.mda-7) | proportion of cells with sub G0/G1 (A0) DNA content (U1A cells (lacking Tyk2); inhibitor + Ad.vec) | proportion of cells with sub G0/G1 (A0) DNA content ([1]; inhibitor + Ad.mda-7) | proportion of cells with sub G0/G1 (A0) DNA content ([1]; inhibitor + Ad.vec) | proportion of cells with sub G0/G1 (A0) DNA content ([2]; inhibitor + Ad.mda-7) | proportion of cells with sub G0/G1 (A0) DNA content ([2]; inhibitor + Ad.vec)
N#CC(C#N)=Cc1ccc(O)c(O)c1 [AG18, tyrphostin AG18] | 19.27% | 4.88% | 15.64% | 4.64% | 18.79% | 7.64% | 32.95% | 11.76% | 36.14% | 10.47%
N#C/C(=C\c1ccc(O)c(O)c1)C(=O)NCc1ccccc1 [AG490] | 25.34% | 4.17% | 18.56% | 5.98% | 17.13% | 6.18% | 30.52% | 12.84% | 20.32% | 9.35%
O=c1c(-c2ccc(O)cc2)coc2cc(O)cc(O)c12 [Genistein] | 19.10% | 3.73% | 29.85% | 8.14% | 20.83% | 8.03% | 36.29% | 11.67% | 17.94% | 11.97%
